Assay results published in PMC11245519, “Ubiquitous purine sensor modulates diverse signal transduction pathways in bacteria” (Nature Communications, 2024).

Experiments:
Type in all cases: binding
McpH-LBD Y121A = McpH-LBD Y121A (Pseudomonas putida, UniProt Q88R14, Y121A)
McpH-LBD R129A = McpH-LBD R129A (Pseudomonas putida, UniProt Q88R14, R129A)
McpH-LBD W140A = McpH-LBD W140A (Pseudomonas putida, UniProt Q88R14, W140A)
McpH-LBD F167A = McpH-LBD F167A (Pseudomonas putida, UniProt Q88R14, F167A)
McpH-LBD F167A, sequence (Q88R14 51-276 F167A): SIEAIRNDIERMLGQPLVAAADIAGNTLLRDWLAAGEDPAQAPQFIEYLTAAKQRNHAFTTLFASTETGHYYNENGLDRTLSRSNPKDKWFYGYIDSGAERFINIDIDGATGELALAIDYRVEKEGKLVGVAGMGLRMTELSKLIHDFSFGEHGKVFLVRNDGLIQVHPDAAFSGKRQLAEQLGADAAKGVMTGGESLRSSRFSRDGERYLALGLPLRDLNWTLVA

McpH-LBD D169N = McpH-LBD D169N (Pseudomonas putida, UniProt Q88R14, D169N)
McpH-LBD D169N, sequence (Q88R14 51-276 D169N): as the sequence (Q88R14 51-276 F167A) above, with A117F, D119N counted along it

McpH-LBD W140A, sequence (Q88R14 51-276 W140A): as the sequence (Q88R14 51-276 F167A) above, with W90A, A117F counted along it
McpH-LBD R129A, sequence (Q88R14 51-276 R129A): as the sequence (Q88R14 51-276 F167A) above, with R79A, A117F counted along it
McpH-LBD Y121A, sequence (Q88R14 51-276 Y121A): as the sequence (Q88R14 51-276 F167A) above, with Y71A, A117F counted along it

Nc1ncnc2[nH]cnc12 [Adenine]
Fold reduction to wild-type protein (McpH-LBD Y121A): 58 fold | Fold reduction to wild-type protein (McpH-LBD R129A): 16 fold | Fold reduction to wild-type protein (McpH-LBD W140A): 65 fold | Fold reduction to wild-type protein (McpH-LBD F167A): 47 fold | Fold reduction to wild-type protein (McpH-LBD D169N): 80 fold
